Among the data in PubChem BioAssay AID2060325 (Molecular Pharmacology Branch, DTP, NCI, 2025) are IC50 values, retold here.

This test relates to SK-OV-3 multi-cell spheroids, viability. Kind of test: Anticancer human tumor SK-OV-3 cell line growth inhibition [IpAb]. Conditions: compound alone; run of 05/18/2021. From the text: Combinatorial screen of targeted agents with ipatasertib and abemaciclib in multi-cell type tumor spheroids
A high-throughput screen of multi-cell type tumor spheroids was designed to identify active combinations of targeted small molecules and ipatasertib or abemaciclib. Complex spheroids include a stromal component modeled by human endothelial cells (HUVEC) and fibroblasts modeled by human mesenchymal stem cells (MSCs). The concentration ranges selected for each drug and investigational agent were based upon clinically achievable concentrations if the clinical Cmax of the agent was known.
Compounds. […] If the clinical Cmax for an agent had not been determined, the highest concentration tested was 10 microM.
NCI60 Cell Culture. […] The optimal seeding densities for each of the cell lines at each time point assessed were determined prior to performing the concentration response studies. […]

Each structure is given as a SMILES string. Not every entry of the source has a single result; some have several. This list holds those alone. There may be further records. Results that share an entry are repeated measurements (runs, samples, wells, individuals or studies).

What is called IC50 is the concentration that gives 50% inhibition. As to `CCN1CCN(Cc2ccc(Nc3ncc(F)c(-c4cc(F)c5nc(C)n(C(C)C)c5c4)n3)nc2)CC1`, the IC50 is reported as 176, 340, 99.6, 249, 478, 251, 588, 536, 524, 467, 312, 261, 286 nM.
